# Reference: PubChem BioAssay AID624296 (National Center for Advancing Translational Sciences (NCATS), 2012)
# Screen size: about 350,000 compounds; about 9,900 (2.8%) were called active. The shares of active, inactive and inconclusive entries below differ from those in the screen. The call rests on the fitted dose curve; in most records, active means well fitted activation curve with a large enough effect; inconclusive means small, poorly fitted or top-dose-only effect; inactive means no such curve, though single readings can be large or run the other way. Potencies of inconclusive entries are left out as doubtful fits.
# Test: A quantitative high throughput screen for small molecules that induce DNA re-replication in MCF 10a normal breast cells. Further: nearly all actives have a fitted effect of over 50% in size. On activity, positive = re-replication: % of control where 0% means no effect.
# Details: MCF 10A DNA re-replication, Hoechst nuclear intensity, 48 h; activity, positive = re-replication: at 46.1 µM (top of the series)
# Potency means the concentration at half of the fitted maximal effect; tags describe the fitted curve by direction and shape.
Compound,Potency,"activity, positive = re-replication"
CCN=c1scc(-c2ccccc2)n1/N=C/c1ccccn1,active: 20.6 µM,
O=C(N/N=C/c1cccs1)c1ccc2ncccc2c1,,inactive: -0.321%
CCOC(=O)c1c(NC(=O)COc2ncnc3ccccc23)sc(C)c1CC,"inconclusive [activator, partial curve]",
CCOC(=O)CNC(=O)N1CCc2ccc(NC(=O)c3ccccc3OC)cc2C1,"inconclusive [activator, partial curve, poor fit]",
CC1CCN(C(=O)c2[nH]cnc2C(=O)Nc2ccc(Cl)cc2)CC1,,inactive: 0.512%
Cc1ccc(C)c(NC(=O)COc2coc(CN3CCc4ccccc4C3)cc2=O)c1,"inconclusive [activator, single point]",
CCCN1CCc2c(sc(NC(=O)c3ccc(S(=O)(=O)N4CCN(C(=O)OCC)CC4)cc3)c2C(N)=O)C1,"inconclusive [activator, single point]",
C=C(C)CNC(=S)NN=C1c2ccccc2-c2ccccc21,"inconclusive [activator, single point]",
COc1ccc2c(c1)OC/C(=C/c1cccs1)C2=O,"inconclusive [activator, single point]",
O=C1[C@H]2CCC=C[C@H]2[C@H](c2ccccc2Br)N1Cc1ccccc1,"inconclusive [activator, partial curve, poor fit]",
O=C(C=Cc1cccc(O)c1)c1ccccc1O,"inconclusive [activator, single point]",
CC1CC1C(=O)N(C)CC(=O)Nc1cccc(F)c1 (centres undefined),,inactive: 0.576%
CCCCC(=O)NC(c1ccccc1Cl)c1ccc2cccnc2c1O (centres undefined),"inconclusive [activator, partial curve, poor fit]",
O=C(C[C@@H]1C/C=C/CC[C@@H](Cc2ccc(F)cc2)C(=O)OCCNC1=O)N[C@H](CO)Cc1ccccc1,"inconclusive [activator, full curve, poor fit]",
CCC(C)Sc1ccc(-c2nc3ccccn3c2NCc2ccccc2)cc1OC (centres undefined),active: 20.6 µM,
O=[N+]([O-])c1ccc(OCC2CC(c3ccccc3)=NO2)cc1 (centres undefined),"inconclusive [activator, single point]",
Oc1cc(CNCc2ccccc2)c(O)cc1CNCc1ccccc1,"inconclusive [activator, single point]",
O=C(c1ccc2ccccc2c1)N1CCN(c2ccc(O)cc2)CC1,"inconclusive [activator, single point]",
Cc1cn(-c2cc(NC(=O)c3ccc(C)c(NC(=O)c4cccc(-c5cn[nH]c(=O)c5)c4)c3)cc(C(F)(F)F)c2)cn1,"inconclusive [activator, full curve, poor fit]",
CC(C)C(NC(=O)c1ccc(C(C)(C)C)cc1)C(=O)NCCc1ccccn1 (centres undefined),,inactive: 18.2%
Cc1onc(-c2ccccc2)c1C(=O)OCC(=O)NCc1ccc(F)cc1,,inactive: -9.76%
COc1ccc(/C=C/C(=O)c2ccc(NS(=O)(=O)c3ccc(C)cc3)cc2)cc1O,"inconclusive [activator, single point]",

Compound,Potency,"activity, positive = re-replication"
Cn1c(=O)n(CCc2ccccc2)c(=O)c2c1nc1n2CCCN1CCc1ccccc1,active: 20.6 µM,
CCn1c(/N=C/c2ccc(OC)cc2O)nc2ccccc21,"inconclusive [activator, single point]",
Clc1ccc(CSc2nncn2-c2ccc3c(c2)OCCO3)cc1,active: 9.2 µM,
Cc1ccc(CNC(=O)C2CCC(CNS(=O)(=O)c3cccs3)CC2)cc1 (centres undefined),,inactive: 2.32%
CC(C)(C)OC(=O)N1CC=C2C(C#N)=C(N)C(C#N)(C#N)C(c3cccs3)C2C1 (centres undefined),"inconclusive [activator, partial curve, poor fit]",
CC(C)(C)S(=O)N1Cc2cc(CO)cc(-c3ccccc3)c2[C@@H]1CCO (some centres undefined),,inactive: -5.19%
Cc1ccc(Sc2c(C#N)c(-c3ccccc3)nn2C)cc1,active: 6.51 µM,
Cn1c2ccsc2c2ncn(Cc3ccc(F)cc3)c(=O)c21,"inconclusive [activator, single point]",
C#CCNC(=O)C1=C[C@H](c2ccccc2)C[C@H](OCCCCO)O1,,inactive: -1.64%
CCC(CCNC(=O)c1ccccc1)(CCNC(=O)c1ccccc1)[N+](=O)[O-],,inactive: 1.83%
CCN(CC)S(=O)(=O)c1cc(NC(=O)CSc2nccn2C)ccc1C,"inconclusive [activator, partial curve, poor fit]",
COc1ccc(C#Cc2c(-c3ccccc3)n(-c3ccccc3)c3ccc(CO)cc23)cc1,active: 20.6 µM,
Cc1ccccc1CC1(CO)CCCN(Cc2ccc3c(c2)OCCO3)C1 (centres undefined),"inconclusive [activator, partial curve, poor fit]",
O=C(CN1CCOCC1)NNC(=S)Nc1ccccc1,,inactive: -6.58%
O=S(=O)(Nc1cc(C(F)(F)F)ccc1N1CCOCC1)c1ccc2ccccc2c1,"inconclusive [activator, single point]",
O=C(CSCc1ccc(Cl)cc1)Nc1cccc(C(=O)Nc2ccccc2C(=O)O)c1,"inconclusive [activator, partial curve, poor fit]",
Cc1cc(C)cc(N(CC(=O)Nc2ccccc2)C2=NC3CS(=O)(=O)CC3S2)c1 (centres undefined),"inconclusive [activator, single point]",
COc1ccc(NC(=O)N(Cc2cc3ccc(OC)cc3[nH]c2=O)CC2CCCO2)cc1 (centres undefined),"inconclusive [activator, single point]",
Cc1ccc(-c2cn(-c3ccc(OC(F)F)cc3)c3[n+]2CCCCC3)cc1,,inactive: 5.09%
C=CCOc1ccc(/C=C2/C(=O)ON=C2C)cc1OC,"inconclusive [activator, single point]",
COc1ccccc1C1NC(=O)NC(C)=C1C(=O)OCc1ccccc1 (centres undefined),,inactive: 5.54%
Cc1cccc(/C(N)=N/OC(=O)c2ccoc2C)c1,"inconclusive [activator, partial curve, poor fit]",
